In PubChem BioAssay AID485344 (National Center for Advancing Translational Sciences (NCATS), 2010) one finds inhibition data, which are given here for 97 molecules.

Where “and” joins values, the source holds several entries; their conditions need not be identical. Equal entries are not always repeated. The campaign covered roughly 340,000 compounds. About 6,900 (2%) were called active. Cut-off read from the data, not from the text of the source: active = inhibition above about 30%; inactive = below that, where a call was filed. Only a part is listed here, and it is no random draw. The source gives no active or inactive call for entries shown without one.

The assay concerns the target D(2) dopamine receptor (Homo sapiens) (UniProt P14416). Put plainly: HTS Assay for Allosteric Antagonists of the Human D2 Dopamine Receptor: Primary Screen for Antagonists. Note: 0% is about no effect. To be noted: HEK293 TREx D2 cells, calcium flux, dopamine EC80; at 10 µM; stronger effect = higher value. The gist of the method: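 Read-out: kinetic calcium fluorescence (1 cycle/s) in inducible HEK293 T-REx D2 cells after an EC80 dopamine addition that followed 180 s compound preincubation. Loss of the dopamine response indicates antagonism.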
Chain of UniProt P14416 (P14416 whole entry, looked up): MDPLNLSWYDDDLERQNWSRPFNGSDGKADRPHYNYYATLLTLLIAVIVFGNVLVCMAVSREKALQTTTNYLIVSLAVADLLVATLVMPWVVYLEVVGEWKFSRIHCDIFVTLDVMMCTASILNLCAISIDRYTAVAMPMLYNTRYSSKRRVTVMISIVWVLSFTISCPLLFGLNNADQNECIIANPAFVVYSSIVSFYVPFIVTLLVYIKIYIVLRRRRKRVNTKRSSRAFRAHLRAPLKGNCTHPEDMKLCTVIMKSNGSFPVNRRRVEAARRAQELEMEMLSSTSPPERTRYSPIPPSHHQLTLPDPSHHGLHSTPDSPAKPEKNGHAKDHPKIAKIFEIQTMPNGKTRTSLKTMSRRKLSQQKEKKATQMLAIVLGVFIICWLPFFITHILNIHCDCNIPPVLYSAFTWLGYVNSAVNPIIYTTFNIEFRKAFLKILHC
For orientation: Calcium assays in cells follow changes in intracellular calcium, usually with a dye or a luminescent sensor.
In general, inhibition refers to the relative decrease from the control value, in per cent. With `CCOc1ccccc1NC(=O)CN1CCN(S(=O)(=O)c2ccc(Br)cc2)CC1`, the inhibition is -8.96%.

On to `CC(=O)c1cccc(NC(=O)c2nc(-c3ccccc3)n(-c3cccc(C)c3)n2)c1`, for which the inhibition is 21%.

With `CCS(=O)(=O)N1CCc2cc(C(=O)Nc3ccc(OC)cc3OC)ccc21`, the inhibition was 7.68%.

With `CCC1CCCCN1Cc1cn2c(-c3ccc(Br)cc3)nnc2s1` (configuration not stated), the inhibition stood at 7.09%.

Take `O=C(Nc1nc2n(n1)C(c1ccc(F)cc1)C=C(c1ccccc1)N2)c1cccc([N+](=O)[O-])c1` (configuration not stated): the inhibition was 25.2%.

Turning to `COc1c(Cl)cc(Cl)cc1CNCCSc1nnnn1C`, the inhibition was -15.3%.

For the molecule `CCC(C)NC(=O)CSc1nc2cc3c(cc2c(=O)n1CCCCCC(=O)NCc1ccc(OC)cc1)OCO3` (configuration not stated), the inhibition was found to be 10.1%.

Take `Cc1cc(Cl)ccc1NC(=O)c1cc2ccccn2n1`: the inhibition is -7.9%.

Consider `Cc1ccc(CNC(=O)CSC2=Nc3ccccc3C3=NC(C)C(=O)N23)cc1` (configuration not stated), for which the inhibition amounted to 16.5%.

On to `CCN(CCO)C(=S)Nc1cc(S(=O)(=O)N(C)C)ccc1C`, for which the inhibition is active: 50.6%.

Regarding `CC(=O)Nc1cccc(NC(=O)C(=O)NCCc2csc3nc(-c4ccccc4F)nn23)c1`, the inhibition was determined as 26.3%.

Consider `O=C(NC1CCN(Cc2ccccc2)CC1)c1ccc(S(=O)(=O)NCc2ccco2)cc1`, for which the inhibition is active: 35.6%.

For the molecule `CCOC(=O)c1ccccc1NC(=O)c1nn(C)c2c1COc1ccccc1-2`, the inhibition was determined as 21.6%.

Take `Cc1ccc(OCc2nnc(-c3ccccc3)o2)cc1`: the inhibition is -9.32%.

Consider `CC(C)CCNC(=O)c1cn(C)c2ccc(S(=O)(=O)N3CCOCC3)cc2c1=O`, for which the inhibition is -7.63%.

In the case of `COCCCN1CCN(C2Cc3ccccc3Sc3ccc(Cl)cc32)CC1` (configuration not stated), the inhibition is active: 107%.

In the case of `COc1ccccc1N1CCN(S(=O)(=O)c2ccc(-c3cnc(C4CC4)o3)cc2)CC1`, the inhibition worked out at 9.72%.

As for `COc1cc(OC)c(NC(=O)CCNS(=O)(=O)c2ccc3c(c2)oc(=O)n3C)cc1Cl`, the inhibition was -12.1%.

Consider `CN(C)CC/C=C1/c2ccccc2Sc2ccc(Cl)cc21`, for which the inhibition is active: 66.3% and active: 103%.

On to `COc1ccc(-n2c(CCC(=O)O)ccc2-c2ccccc2)c(OC)c1`, for which the inhibition is -12.1%.

With `CC(=O)N1CCCc2cc(S(=O)(=O)N(Cc3ccccc3)C(C)C)ccc21`, the inhibition turned out to be 2.14%.

As for `CCCCc1ccc(NC(=O)CSc2nnc3[nH]c(=O)cc(C)n23)cc1`, the inhibition was determined as 0.483%.

Take `CCCN(CCC)C(=O)CSc1nnc2cc(C)c3ccccc3n12`: the inhibition turned out to be 3.63%.

Take `CCN(CC)CCNC(=O)c1cc2c(=O)oc3ccc(C)cc3c2s1`: the inhibition was 17.1%.

As for `CCCN1CCN(CCCNC(=O)c2ccc(CS(=O)c3ccc(OC)cc3)o2)CC1` (configuration not stated), the inhibition was -0.708%.

Take `Cc1ccc(NC(=O)Cn2nnc3sc4c(c3c2=O)CCCC4)c(C)c1`: the inhibition turned out to be 7.15%.

For the molecule `Cc1cc(C)c(Cn2c3ccccc3c3cnn(CC(=O)NCC(C)c4ccccc4)c(=O)c32)c(C)c1` (configuration not stated), the inhibition was -3.36%.

Consider `O=C(/C=C/c1ccc(Cl)cc1)Nc1nc(-c2cccs2)ns1`, for which the inhibition was found to be 14.4%.

For the molecule `COc1cc(C2c3c(-c4ccccc4O)n[nH]c3C(=O)N2CCO)ccc1OCC(C)C` (configuration not stated), the inhibition was -6.21%.

As to `COc1ccc(Cc2c(C)nn(-c3nc(C)c(C(=O)Nc4ccc(C)cc4C)s3)c2C)cc1`, the inhibition was determined as 12.8%.

`COc1ccc(NC(=O)c2oc3ccc(S(=O)(=O)N4CCC5(CC4)OCCO5)cc3c2C)cc1Cl`: the inhibition was 3.86%.

On to `COc1ccc(Cn2c3nc4ccccc4nc3c3c(=O)n(Cc4ccco4)c(C)nc32)cc1`, for which the inhibition is active: 33.4%.

For the molecule `Cc1cccc(Oc2ccc(NC(=O)CCC(=O)OCC(=O)c3ccc(Br)cc3)cc2)c1C`, the inhibition is -17.7%.

`COc1cccc(C(C(=O)NCc2ccccc2)N(C(=O)Cn2nnc3ccccc32)c2cccc(C(C)=O)c2)c1` (configuration not stated): the inhibition was found to be 9.98%.

`O=C(NCCCN1CCN(c2ccccc2F)CC1)C1CCCN(S(=O)(=O)c2cnc[nH]2)C1` (configuration not stated): the inhibition is active: 64.7%.

`Cc1ccccc1CSCCNC(=O)CN(c1ccccc1)S(=O)(=O)N(C)C`: the inhibition is -1.04%.

As to `COc1ccccc1CNC(=O)c1cc2ccc3ccc(C)[nH]c3c2n1`, the inhibition amounted to 5.38%.

For `COc1ccccc1NC(=O)CNC(c1ccccc1)c1ccccc1`, the inhibition is active: 36%.

Regarding `Cc1cccc(CC(=O)Nc2cccc(-c3nc4cccnc4s3)c2)c1`, the inhibition is 23%.

Take `CCN1CCc2c(sc(-n3cccc3)c2C(C)NC(=O)Nc2ccccc2C)C1` (configuration not stated): the inhibition is -0.705%.

On to `Cc1ccc(C)c(N2CCN(S(=O)(=O)c3csc(C(N)=O)c3)CC2)c1`, for which the inhibition is -9.43%.

With `CCn1nnc2cc(C(=O)Nc3cccc(C)c3C)ccc21`, the inhibition stood at 0.0507%.

Take `COc1ccc(NC(=O)C2CCC(CNS(=O)(=O)c3cccs3)CC2)cc1OC` (configuration not stated): the inhibition came out at 28%.

`CC1CCCN(Cc2c(O)ccc3c4c(c(=O)oc23)CCCC4)C1` (configuration not stated): the inhibition was active: 36%.

As for `Cc1cccc(N2CCN(CC(O)COc3ccccc3Cl)CC2)c1` (configuration not stated), the inhibition was active: 71.1%.

For `Clc1ccccc1-c1nnc(-c2ccccc2CNc2ccccc2)o1`, the inhibition is -17.1%.

Turning to `COC(=O)c1cc2sc(C)cc2n1CC(=O)Nc1ccc(C)cc1Cl`, the inhibition stood at 0.268%.

For the molecule `CC(=O)c1cc(-c2ccccc2)n(CC(=O)NCc2ccccc2C)c1C`, the inhibition was determined as 27.8%.

With `COc1ccc(-c2noc(CSc3nnc(-c4ccccc4)n3C)n2)cc1`, the inhibition amounted to 2.48%.

With `CCCOC(=O)c1ccc(Nc2c(C(=O)OCC)cnc3c(C)cc(Cl)cc23)cc1`, the inhibition was determined as 9.41%.

`Cc1oc2c(cc(NS(=O)(=O)c3ccc(F)cc3)c3ccccc32)c1C(=O)OCc1ccccc1`: the inhibition is -2.38%.

As for `COc1ccc(C)cc1NC(=O)CN1CCN(S(=O)(=O)c2ccc(Br)cc2)CC1`, the inhibition was 8.05% and active: 33.5%.

Consider `Cc1cccc(C)c1NC(=O)CN1C(=O)c2ccccc2Sc2ncccc21`, for which the inhibition turned out to be 13.5%.

On to `CCc1cccc(N2C(=O)N(Cc3c(F)cccc3Cl)c3ccccc3S2(=O)=O)c1`, for which the inhibition is -11.8%.

For the molecule `CCn1cc(C(=O)Nc2ccc(C(C)C)cc2)c2cc(OC)c(OC)cc2c1=O`, the inhibition was -14.3%.

With `Cc1ccc2cc3cc(C(=O)N(C)c4ccccc4C)oc3nc2c1`, the inhibition is 16.6%.

Take `CCOC(=O)c1ccc(NC(=O)c2c(NCc3cc(OC)ccc3OC)sc3c2CCC3)cc1`: the inhibition was -1.37%.

With `CCc1cnc2c(c1SCCC(C)C)c(=O)n(C)c(=O)n2C`, the inhibition is -2.25%.

In the case of `CC(C)CCn1c(=O)c2sccc2n2c(CCCC(=O)NC(C)c3ccccc3)nnc12` (configuration not stated), the inhibition turned out to be 3.25%.

In the case of `CC(=O)c1cccc(NC(=O)CSc2nc3c(=O)n(C)c(=O)n(C)c3n2C)c1`, the inhibition was -18.2%.

With `Cc1cccc(OCC(=O)Nc2ccccc2C(=O)OCc2cc(=O)n3nc(C4CC4)sc3n2)c1`, the inhibition is 3.92%.

With `Cc1ccc(CCNC(=O)c2cc3c(=O)n(C)c4ccccc4c3n2C)cc1`, the inhibition was -9.03%.

`Cc1cccc(N2CCN(c3nc4ccccc4c4nc(-c5cccnc5)nn34)CC2)c1C`: the inhibition was 14.2%.

Consider `CC(C)CCNC(=O)c1ccc2c(c1)nc1n2CCCCC1`, for which the inhibition is -4.01%.

On to `CCCC(=O)Nc1ccc2nc(SCc3ccc(C)cc3)sc2c1`, for which the inhibition is -5.64%.

In the case of `OC(CNCC1COc2ccccc2O1)COc1ccc(Cl)cc1` (configuration not stated), the inhibition was active: 104%.

For the molecule `Nc1ccc2oc(Cc3ccc(Cl)cc3)nc2c1`, the inhibition was -13.1%.

On to `COc1ccc(C)cc1NC(=O)Cc1c(C(=O)O)c(C)cn1C`, for which the inhibition was 4.05%.

`COCCNc1ccc(-c2nc(-c3ccccn3)no2)cc1[N+](=O)[O-]`: the inhibition stood at 17.7%.

Consider `CCC1(CC)NC(=O)N(CC(=O)OCC(=O)Nc2ccc(OC(F)(F)F)cc2)C1=O`, for which the inhibition was active: 61.4%.

`CC(=O)Nc1ccc(S(=O)(=O)N(Cc2ccccc2)Cc2ccccc2)cc1`: the inhibition is -2.38%.

Take `C=Cc1ccc(Cn2c(=O)n(CC3CCC(C(=O)NC(C)C)CC3)c(=O)c3sccc32)cc1` (configuration not stated): the inhibition was 1.77%.

Take `O=C(NCc1ccco1)c1ccc2c(c1)N(Cc1ccccc1F)C(=O)c1ccccc1S2(=O)=O`: the inhibition was -19.7%.

On to `CCn1c(=O)cc(SCC(=O)NCc2ccc(C)cc2)c2ccccc21`, for which the inhibition came to 10.1%.

On to `CCCCNC(=O)c1ccc2c(c1)NC(=O)C(CS(=O)(=O)Cc1ccc(F)cc1Cl)N2` (configuration not stated), for which the inhibition was -0.619%.

Regarding `COc1cccc(NC(=O)CCN2CCN(CCO)CC2)c1`, the inhibition was -3.29%.

In the case of `COc1ccc(N(C)C(=O)c2cc3c(s2)-c2ccccc2OC3)cc1`, the inhibition is 1.13%.

Consider `CCCCNc1nc2c(c(=O)n(Cc3ccccc3)c(=O)n2C)n1C`, for which the inhibition is 2.08%.

`Cc1ccc(Cl)cc1N1CCN(C(=O)C2CCCN(Cc3nc(-c4cccc(Cl)c4)oc3C)C2)CC1` (configuration not stated): the inhibition stood at 11.5%.

In the case of `Cc1ccc(NC(=O)C2CCCN(S(=O)(=O)c3ccc4c(c3)CCCC(=O)N4)C2)cc1Cl` (configuration not stated), the inhibition is 8.56%.

In the case of `Cc1ccc(NC(=O)Cn2c(=O)ccc3cc(S(=O)(=O)N4CCCC4)ccc32)cc1N(C)C`, the inhibition turned out to be 1.5%.

Regarding `Cc1cc(C(=O)Nc2cccc(C)c2C)c2c(C)nn(-c3cccc(F)c3)c2n1`, the inhibition came out at 0.21%.

For the molecule `O=C(NCc1ccc(Cl)cc1)c1ccc2c(c1)N(Cc1ccccc1F)C(=O)c1ccccc1S2=O` (configuration not stated), the inhibition is -24.8%.

On to `CSc1ccc(CN2CCCC(CO)(Cc3ccccc3)C2)cc1` (configuration not stated), for which the inhibition was active: 51%.

In the case of `CCC(C(=O)NCCc1ccc(Cl)cc1)n1ccc2cc(S(=O)(=O)N3CCCCC3)ccc21` (configuration not stated), the inhibition is 0.476%.

In the case of `COc1ccc(CCNC(=O)C(=O)NCC(c2cccnc2)N2CCN(c3ccccc3)CC2)cc1` (configuration not stated), the inhibition was found to be 10.9%.

On to `CN(C)CCCNC(=S)/N=c1\sccn1Cc1ccccc1Cl`, for which the inhibition is active: 90.4%.

For `CCOc1ccc(NC(=O)CN(C)S(=O)(=O)c2ccc3[nH]c4c(c3c2)CCCC4)cc1`, the inhibition is -8.88%.

In the case of `COc1ccc(C(=O)N2CCN(c3nc4c(C)c(Cl)ccc4s3)CC2)c(OC)c1`, the inhibition was determined as 7.5%.

As for `Cc1ccc(NC(=O)COc2cccc3c2OC(C)(C)C3)c(O)c1`, the inhibition was active: 30.2%.

`Cc1cc(-c2ccc(S(=O)(=O)Nc3cccc(Cl)c3C)cc2)on1`: the inhibition amounted to 6.11%.

With `Cc1ccc(C(C)C)c(OCC(=O)Nc2nc3c(s2)CCCC3)c1`, the inhibition was -4.35%.

As for `CCCCCOC(=O)c1ccc(Nc2nc(C(=O)OCC)nc3ccccc23)cc1`, the inhibition is 4.61%.

On to `COCCNC(=O)CN(c1cc(Cl)ccc1OC)S(=O)(=O)c1ccc(C)c([N+](=O)[O-])c1`, for which the inhibition was active: 58.8%.

As for `COc1ccc(S(=O)(=O)Nc2cc(-c3cn4cccc(C)c4n3)ccc2C)cc1C`, the inhibition amounted to 4.66%.

In the case of `Cc1ccc2nc(-c3c[nH]c4ccccc34)c(Nc3ccccc3)n2c1`, the inhibition is -8.97%.

`O=C(NCCc1ccc(F)cc1)C(=O)NCC(c1ccc2c(c1)OCO2)N1CCOCC1` (configuration not stated): the inhibition is -14.4%.
